# In patent publication US20250066451A1 (SWEDISH ORPHAN BIOVITRUM AB PUBL, published 2025):
# Numbering of substitutions follows the chain as printed. Names and notes keep the numbering of the source.
# T1: human IL-1R-I (RnD Systems cat. no. 269-1R/CF) (human, UniProt P14778 18-332, limits assumed)
# T1 construct: bought protein; also called hIL-1R-I; hIL-1RI
# T1 sequence (looked up): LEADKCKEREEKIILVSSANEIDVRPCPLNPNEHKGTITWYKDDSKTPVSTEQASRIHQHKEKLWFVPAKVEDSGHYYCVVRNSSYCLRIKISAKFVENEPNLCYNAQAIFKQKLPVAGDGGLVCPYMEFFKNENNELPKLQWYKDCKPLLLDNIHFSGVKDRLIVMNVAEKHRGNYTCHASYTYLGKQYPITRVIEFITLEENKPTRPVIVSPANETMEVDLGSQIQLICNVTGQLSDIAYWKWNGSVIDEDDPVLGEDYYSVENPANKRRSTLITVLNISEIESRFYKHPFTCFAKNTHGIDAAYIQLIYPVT
# T2: Human IL-1R-I-Fc (Creative BioMart cat. no. IL1RI-771H) (human, UniProt P14778 18-332, limits assumed)
# T2 construct: Bought Fc fusion; also called hIL-1R-I-Fc; hIL-1RI-Fc; not shown: Fc part of the bought fusion
# T2 sequence (looked up): T1 sequence (looked up)
# B1: His6-Z16062 (designed binder)
# chain: MGSSHHHHHHLQVDAKYAKEIEEAQMEIFYLPNLTRKQYTAFIRKLFDDPSQSSELLSEAKKLNDSQAPKVD
# B2: His6-Z16163 (designed binder)
# chain: B1 chain with I21V, E23R, Y30E, K37R, F47L
# B3: Z15864-ABD (designed binder)
# chain: AQHDEALEVDAKYAKEIENAQMEIFALPNLTRKQYTAFIRKLLDDPSQSSELLSEAKKLNDSQAPKVDYVLAEAKVLANRELDKYGVSDYYKNLINNAKTVEGVKALIDEILAALPYVPG
# B4: Z16009-ABD (designed binder)
# chain: B3 chain with I17V, N19E, M22L, A26G
# B5: Z16019-ABD (designed binder)
# chain: B3 chain with I17T, N19Y, L43F
# B6: Z16015-ABD (designed binder)
# chain: B3 chain with I17V, N19E, Q21Y, F25Y, A26Y
# B7: Z16017-ABD (designed binder)
# chain: B3 chain with I17V, N19E, F25Y, A26D
# B8: Z15947-ABD (designed binder)
# chain: B3 chain with I17T, N19I
# B9: Z16020-ABD (designed binder)
# chain: B3 chain with I17V, N19A, F25Y, A26G, L43F
# B10: Z15873-ABD (designed binder)
# chain: B3 chain with I17A, N19I
# B11: Z15972-ABD (designed binder)
# chain: B3 chain with I17V, N19Q, A26Y
# B12: Z16016-ABD (designed binder)
# chain: B3 chain with I17V, N19D, F25Y, A26Y
# B13: Z16018-ABD (designed binder)
# chain: B3 chain with I17V, N19L, A26N
# B14: Z16013-ABD (designed binder)
# chain: B3 chain with N19S, A26D
# B15: Z16012-ABD (designed binder)
# chain: B3 chain with I17V, N19Q, A26F
# B16: Z16021-ABD (designed binder)
# chain: B3 chain with I17V, N19V, K33R
# B17: Z15889-ABD (designed binder)
# chain: B3 chain with I17V, N19A, A26S
# B18: Z15986-ABD (designed binder)
# chain: B3 chain with I17V, N19E, A26G
# B19: Z15908-ABD (designed binder)
# chain: B3 chain with I17V, N19E, Q21Y, F25Y, A26N, K33R
# B20: Z16010-ABD (designed binder)
# chain: B3 chain with I17T, N19Q, A26N, K33R
# B21: Z16014-ABD (designed binder)
# chain: B3 chain with N19K, A26Y
# B22: Z15882-ABD (designed binder)
# chain: B3 chain with I17V, N19E, A26G, L43F
# B23: Z19305 (designed binder)
# chain: B3 chain with I17T, N19A, A20V, A26R, K33R
# notes: Z-ABD001 fusion in periplasmic extract; also called Z-ABD
# Target: T1, human IL-1R-I (RnD Systems cat. no. …)
# Test: Biacore SPR, hIL-1R-I immobilized, 1:1 model
# Text: One flow cell surface on the chip was activated and deactivated for use as blank during analyte injections.
row,Binder,Kd
1,B1,0.44 nM
2,B2,0.55 nM

# Target: T1, human IL-1R-I (RnD Systems cat. no. …)
# Test: Biacore kinetic screening, Z-ABD captured on anti-ABD, 100 nM hIL-1R-I
row,Binder,Kd
1,B3,16 nM
2,B4,20 nM
3,B5,15 nM
4,B6,15 nM
5,B7,18 nM
6,B8,11 nM
7,B9,20 nM
8,B10,23 nM
9,B11,12 nM
10,B12,12 nM
11,B13,16 nM
12,B14,18 nM
13,B15,12 nM
14,B16,9.6 nM
15,B17,15 nM
16,B18,9.5 nM
17,B19,17 nM
18,B20,12 nM
19,B21,11 nM
20,B22,9 nM

# Target: T2, Human IL-1R-I-Fc (Creative BioMart cat. …)
# Test: ELISA, captured Z-ABD, hIL-1R-I-Fc titrated
row,Binder,EC50
1,B23,0.26 nM
